Measured values: a collection of fitness landscapes (doi:10.1016/j.celrep.2020.107928)
In all, about 81,000 sequences were measured (“one-hybrid fitness for binding parS DNA”: median about -0.17, highest 2% from about 0.51 on). The list shows a part of the results.

B1: Caulobacter ParB omega fusion; a variant is named by its letters at X, in order, B8GW30 (parent)
chain: MESVVVGEPGMSEGRRGLGRGLSALLGEVDAAPAQAPGEQLGGSREAPIEILQRNPDQPRRTFREEDLEDLSNSIREKGVLQPILVRPSPDTAGEYQIVAGERAWRAAQRAGLKTVPIMVRELDDLAVLEIGIIENVQRADLNVLEEALSYKVLMEKFERTQENIAQTIGKSXSHVANXMRLLXLPDEVQSYLVSGELTAXHARAIAAAADPVALAKQIIEGGLSVRETEALARKAPNLSAGKSKGGRPPRVKDTDTQALESDLSSVLGLDVSIDHRGSTGTLTITYATLEQLDDLCNRLTRGI

Variants of: B1
Assay: one-hybrid fitness for binding parS DNA (scaled: cognate 1, non-cognate 0); higher = stronger binding
Conditions: with parS DNA site
Summary of the method: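 Caulobacter ParB libraries with four specificity codons randomised were screened by bacterial one-hybrid selection in the E. coli USO strain, using a HIS3 reporter whose site lies 19 bp from the promoter. Selection ran for 48 hours at 37°C on M9 lacking histidine, with 0.1 mM IPTG and 5 mM 3-AT. Plasmids were Illumina-sequenced before and after selection, three replicate libraries were pooled, and variants with under 10 reads were dropped. Fitness is the log change in each variant's read ratio to wild type, rescaled against the cognate and non-cognate sites.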

Variant	one-hybrid fitness for binding parS DNA
RVWM	0.344
RNTE	≤ 0.2
PDHQ	≤ 0.2
HHVV	≤ 0.2
EDWS	≤ 0.2
NWEC	≤ 0.2
EGDD	≤ 0.2
SSFV	≤ 0.2
GPRR	≤ 0.2
SHNG	≤ 0.2
QQPL	≤ 0.2
TAGR	≤ 0.2
SCTV	≤ 0.2
HNGW	≤ 0.2
VLSL	≤ 0.2
MQAH	≤ 0.2
NPNF	≤ 0.2
QCAQ	≤ 0.2
QMKG	≤ 0.2
TFNG	≤ 0.2
YSPM	≤ 0.2
YVFC	≤ 0.2
SDYG	≤ 0.2
RNIN	≤ 0.2
LSKG	≤ 0.2
HRHG	0.27

Variant	one-hybrid fitness for binding parS DNA
PCKV	≤ 0.2
ELQC	≤ 0.2
QILI	≤ 0.2
HRER	≤ 0.2
TQPS	≤ 0.2
TFCG	≤ 0.2
MVMN	≤ 0.2
APLD	≤ 0.2
KWYY	≤ 0.2
TIYR	≤ 0.2
AKPG	≤ 0.2
LLNQ	≤ 0.2
RGSR	≤ 0.2
IMSL	≤ 0.2
WMND	≤ 0.2
SYWC	≤ 0.2
MIKT	≤ 0.2
QLMF	≤ 0.2
TKVS	≤ 0.2
MPAR	≤ 0.2
TFPC	≤ 0.2
AQRY	≤ 0.2
AYVE	≤ 0.2
CYKR	≤ 0.2
EDHC	≤ 0.2
KYMT	≤ 0.2

Variant	one-hybrid fitness for binding parS DNA
LMLM	≤ 0.2
GYKH	≤ 0.2
HTYM	≤ 0.2
PEYQ	≤ 0.2
NFSM	≤ 0.2
TIRY	≤ 0.2
CEIR	≤ 0.2
LRNQ	≤ 0.2
LCFF	≤ 0.2
KMLY	≤ 0.2
NHKM	≤ 0.2
IALF	≤ 0.2
CVNK	≤ 0.2
IMES	≤ 0.2
CHYY	≤ 0.2
PSMM	≤ 0.2
TIFA	≤ 0.2
KTER	≤ 0.2
MLAG	≤ 0.2
LTKS	≤ 0.2
HGRH	≤ 0.2
RWNF	0.206
TRYV	≤ 0.2
KMLL	≤ 0.2
CAQA	≤ 0.2
NGSD	≤ 0.2

Variant	one-hybrid fitness for binding parS DNA
WPRM	≤ 0.2
AYQR	≤ 0.2
GERT	≤ 0.2
AYLD	≤ 0.2
LVKG	≤ 0.2
VPFA	≤ 0.2
PGTP	≤ 0.2
DMGA	≤ 0.2
TWTR	≤ 0.2
VAKN	≤ 0.2
FGFS	≤ 0.2
GDSY	≤ 0.2
LAMI	≤ 0.2
LLFF	≤ 0.2
AMLI	≤ 0.2
AIQG	≤ 0.2
LATA	≤ 0.2
SHLK	≤ 0.2
LGQY	≤ 0.2
QKIM	≤ 0.2
VYLN	≤ 0.2
SCFV	≤ 0.2
TMWG	≤ 0.2
PSTS	≤ 0.2
QGIA	≤ 0.2
SCCE	≤ 0.2

Variant	one-hybrid fitness for binding parS DNA
KLDV	≤ 0.2
TYRR	≤ 0.2
NPYF	≤ 0.2
EPPV	≤ 0.2
RWRE	≤ 0.2
RDVV	≤ 0.2
WPQS	≤ 0.2
LKQH	≤ 0.2
AVKM	≤ 0.2
IRLE	≤ 0.2
QRPT	≤ 0.2
WTAN	≤ 0.2
PGRG	≤ 0.2
YLLL	≤ 0.2
GDQQ	≤ 0.2
NHNN	≤ 0.2
RQKS	0.864
LLQR	≤ 0.2
QLKQ	≤ 0.2
GGPT	≤ 0.2
YMRL	≤ 0.2
NNGT	≤ 0.2
QCRC	≤ 0.2
TPMR	≤ 0.2
NGDT	≤ 0.2
TICP	≤ 0.2

Variant	one-hybrid fitness for binding parS DNA
VDKS	≤ 0.2
DPVC	≤ 0.2
QIAP	≤ 0.2
KHGG	≤ 0.2
RGCW	≤ 0.2
YELP	≤ 0.2
QHDV	≤ 0.2
RRMF	≤ 0.2
PQMA	≤ 0.2
KNQL	≤ 0.2
FVSH	≤ 0.2
MLAR	≤ 0.2
SHRN	≤ 0.2
GYLC	≤ 0.2
RHCL	≤ 0.2
QARQ	≤ 0.2
GVAC	≤ 0.2
MEAC	≤ 0.2
ETAA	≤ 0.2
WRWL	≤ 0.2
SLQN	≤ 0.2
LMIF	≤ 0.2
HILS	≤ 0.2
